Experimental data as given in PubChem BioAssay AID1345082 (National Center for Advancing Translational Sciences (NCATS), 2018).
About 4,000 (4.3%) of roughly 94,000 compounds were called active. The inconclusive results got no clear call from the source; some entries with a clear call stand among them for comparison. Calls come from the whole dose curve; as a rule, active = well fitted inhibition curve with a large enough effect; inconclusive = small, poorly fitted or top-dose-only effect; inactive = no such curve, though single readings can be large or run the other way. A potency beside an inconclusive call is a rough fit, not a confirmed value.

Experiment: Cytotoxic Profiling in NIH 3T3 Cell Line of Diverse Libraries Using Quantitative High-Throughput Screening; note: nearly all actives have a fitted effect of over 55% in size
Conditions: NIH 3T3 viability, CellTiter-Glo ATP luminescence, 48-72 h; series mostly up to 96.7 µM
How it was run: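 Cytotoxicity is measured as loss of cellular ATP: NIH 3T3 cells (400/well) are exposed to compound for 48 or 72 hr at 37 °C, then CellTiter-Glo luminescence is imaged after 10 min at room temperature.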
Potency is the fitted concentration of half-maximal effect; tags give direction and shape of the fitted curve.

Row | SMILES | Potency
1 | COc1cccc(CN2CCC(N3C(=O)C4(CCCCC4)C3c3ccncc3)CC2)c1OC (stereo unspecified) | inconclusive: 50.1 µM [inhibitor, partial curve, poor fit]
2 | Cc1cc(=O)n(CC(=O)Nc2ccccc2C)c(N2CCC(C)CC2)n1 | inconclusive: 70.8 µM [inhibitor, single point]
3 | CCn1ccnc1CN(C)Cc1cn(-c2ccccc2C)nc1-c1ccc(OC)c(F)c1 | inconclusive: 89.1 µM [inhibitor, single point]
4 | O=C(c1cccc2[nH]ccc12)N1CCC(n2cc(-c3nc(-c4ccccc4)no3)nn2)CC1 | inconclusive: 31.6 µM [inhibitor, partial curve]
5 | CN1c2cc(C(=O)Nc3ccc(N4CCOCC4)cc3)ccc2C(=O)N2CCCCC21 (stereo unspecified) | inconclusive: 44.7 µM [inhibitor, partial curve, poor fit]
6 | O=C(CCC[C@@H]1[C@H]2CCCN3CCC[C@@H](CN1C(=O)CCc1ccccc1)[C@@H]23)N1CCOCC1 | inactive
7 | CC1(C)[C@H]2CC[C@@H](CNC(=O)c3cccnc3)[C@@H]1C2 | inconclusive: 89.1 µM [inhibitor, partial curve, poor fit]
8 | CCCCC1CN(c2cccc(-c3ccccc3)c2)C(=O)CN1C(=O)c1ncoc1C (stereo unspecified) | inconclusive: 50.1 µM [inhibitor, partial curve, poor fit]
9 | O=C(c1cnccn1)N1CCC2(CC1)CCC(O)(CN1CCc3ccccc31)CC2 | inconclusive: 50.1 µM [inhibitor, partial curve, poor fit]
10 | OCC1CN(C2CCC2)CC12CCN(Cc1ccc(Br)o1)CC2 (stereo unspecified) | inconclusive: 44.7 µM [inhibitor, partial curve, poor fit]
11 | CCOc1cc(=O)n2c(c1C(=O)Nc1ccc(OC)c(OC)c1)CCCC2 | inactive
12 | Cc1ccc(C(=O)N2CCC(N3C(=O)c4c(c(C)nn4-c4ccccc4)C3C(C)C)CC2)cc1 (stereo unspecified) | inconclusive: 50.1 µM [inhibitor, partial curve, poor fit]
13 | O=C(NC1CCCC1)N1CCN(c2nccc(Nc3ccccc3F)n2)CC1 | inconclusive: 28.2 µM [inhibitor, full curve, poor fit]
14 | COC(=O)NC1CCN(c2nccc(Nc3ccccc3F)n2)CC1 | inconclusive: 44.7 µM [inhibitor, partial curve, poor fit]
15 | COc1ccc(CNC[C@H]2COCc3nc4cc(C(F)(F)F)ccc4n32)cn1 | inactive
16 | Cn1nc(C(=O)N2CCC3(CC2)CC(OCC2CC2)CCO3)c2ccccc21 (stereo unspecified) | inactive
17 | Cc1nc(-c2ccc(F)cc2)n(Cc2ccc(F)cc2F)c(=O)c1CCO | inconclusive: 44.7 µM [inhibitor, partial curve, poor fit]
18 | CCc1nc2c(c(-c3ccc(Cl)cc3)n1)CN(C(=O)OC)CC2 | inconclusive: 63.1 µM [inhibitor, partial curve, poor fit]
19 | c1ccc(-c2nc(C3CC3)no2)c(OC2CCNC2)c1 (stereo unspecified) | inconclusive: 39.8 µM [inhibitor, partial curve, poor fit]
20 | Cc1ccc2c(C(=O)NCc3ccc(Cl)cc3Cl)cnn2c1 | inconclusive: 56.2 µM [inhibitor, partial curve, poor fit]
21 | O=C(COc1ccccc1)N[C@H]1CO[C@H]2[C@@H]1OC[C@@H]2n1cc(CC2CCCCC2)nn1 | active: 39.8 µM

Row | SMILES | Potency
22 | O=C(N[C@H]1[C@H]2CCO[C@H]2[C@@H]1N1CCCC1)c1ccc(-c2cccc(F)c2)cc1 | inconclusive: 79.4 µM [inhibitor, partial curve, poor fit]
23 | CC(C)NC(=O)NCCNC(=O)c1cccc(-c2ccsc2)c1 | inconclusive: 70.8 µM [inhibitor, partial curve, poor fit]
24 | COc1ccccc1CNC(=O)c1cc2c(s1)CCN(C(=O)c1ccc(C)cc1)C2 | inconclusive: 44.7 µM [inhibitor, partial curve, poor fit]
25 | CCN1c2cc(C(=O)Nc3ccc(Cl)c(Cl)c3)ccc2C(=O)N2CCCCCC21 (stereo unspecified) | active: 44.7 µM
26 | CCOc1ccccc1C1NC(=O)N(CC(=O)Nc2ccccc2OC)C2=C1C(=O)OC2 (stereo unspecified) | inconclusive: 2.51 µM [inhibitor, partial curve, poor fit]
27 | CNC(=O)CC1C(=O)NCCN1CC(=O)Nc1cc(OC)cc(OC)c1 (stereo unspecified) | inactive
28 | COc1ccc(-n2nc3n(c2=O)CCN(Cc2ccc(C#N)cc2)C3)cc1 | inactive
29 | CCc1nnc(CN2CC[C@@H]3[C@@H](CCC(=O)N3CCc3ccccc3)C2)o1 | inconclusive: 89.1 µM [inhibitor, single point]
30 | Cc1ccc(CN2C(=O)[C@@H]3C[C@@H](O)CN3C3(CN(Cc4ccc(Cl)cc4)C3)C2=O)o1 | inconclusive: 112 µM [inhibitor, partial curve, poor fit]
31 | O=C(c1ccc(Cl)nc1)N1CCC2(CC1)CC(=O)N(c1ccccc1)c1ccccc1O2 | inconclusive: 35.5 µM [inhibitor, partial curve, poor fit]
32 | Cc1nn2c(c1-c1cccnc1N1CCOCC1)N(CCc1ccccc1)CCC2 | inconclusive: 20 µM [inhibitor, full curve, poor fit]
33 | Cc1nnc(-c2cc(-c3cccc([S+](C)(=O)[O-])c3)ccn2)n1CCc1ccccc1 | inconclusive: 56.2 µM [inhibitor, partial curve, poor fit]
34 | CCN(CC)C(=O)C[C@@H]1CCNC[C@@H]1Cc1cc(-c2ccc(F)cc2)on1 | inconclusive: 112 µM [inhibitor, partial curve]
35 | Cc1nnc(-c2cc(-c3ccc(CO)cc3)ccn2)n1CCc1ccccc1 | inactive
36 | COc1ccccc1CCNC(=O)[C@@H]1CNC[C@H]1COc1cccnc1 | inactive
37 | COc1ccccc1-c1ccc2c(C(=O)NCCc3ccc(Cl)cc3)nn(C)c2n1 | inconclusive: 50.1 µM [inhibitor, partial curve, poor fit]
38 | CC(NC(=O)c1ccc2cccc(F)c2n1)c1ccccc1-n1cccn1 (stereo unspecified) | inconclusive: 28.2 µM [inhibitor, full curve, poor fit]
39 | CN(CCc1ccccn1)c1cc(C2CC(O)C2)ncn1 (stereo unspecified) | inactive
40 | CC(=O)Nc1cccc(-c2cc(-c3c(C)noc3C)c3cncn3c2)c1 | inconclusive: 20 µM [inhibitor, partial curve, poor fit]
41 | O=C(Cc1cccc(Cl)c1)N1CCC(C(=O)N2CCC(N3Cc4ccccc4C3=O)CC2)CC1 | inconclusive: 14.1 µM [inhibitor, partial curve, poor fit]
42 | O=C(CCn1cccn1)NC1CCCc2nc(-c3ccccc3)ncc21 (stereo unspecified) | inactive

Row | SMILES | Potency
43 | CCOC(=O)C1CCN(C(=O)Cc2ccc(N(Cc3cccc(F)c3)C(=O)c3ccco3)cc2)CC1 | inconclusive: 44.7 µM [inhibitor, partial curve, poor fit]
44 | O=C(c1cccnc1)N1CCC2(CCCN(C3CCOCC3)C2=O)C1 (stereo unspecified) | inactive
45 | CC(C)c1nc(-c2ccc(OC3CCNC3)cc2)no1 (stereo unspecified) | inconclusive: 50.1 µM [inhibitor, partial curve, poor fit]
46 | COc1ccc(NC(C)=O)cc1NC(=O)C[C@H]1NC(=O)c2ccccc2NC1=O | inconclusive: 28.2 µM [inhibitor, single point]
47 | C[C@]1(CO)[C@H]2Cc3sc(NC(=O)C4CCC4)nc3[C@@H](CC(=O)NC3CC3)[C@]2(C)CC[C@H]1O | inactive
48 | O=C(Cc1ccc(N(Cc2ccccc2)C(=O)c2ccco2)cc1)NCc1ccc(F)cc1 | inconclusive: 44.7 µM [inhibitor, partial curve, poor fit]
49 | CNC(=O)N1CCC(C2CCN(C(=O)Cc3ccsc3)C2)CC1 (stereo unspecified) | inactive
50 | CC(C)CCN1CC(Oc2ccc(F)cc2F)C1 | inactive
51 | CC1=C[C@@H](CNCCN2CCOCC2)[C@H](C(C)C)C[C@H]1Cc1nnc(-c2ccc(C)cc2)o1 | active: 35.5 µM
52 | O=C(NCc1ccccn1)C1CCCN(Cc2cccc(-c3ccsc3)c2)C1 (stereo unspecified) | inconclusive: 56.2 µM [inhibitor, partial curve, poor fit]
53 | Cn1cc(-c2ccccc2)c2nc(COc3ccc(Cl)cc3)cn2c1=O | active: 50.1 µM
54 | O=C1CO[C@H]2CCN(Cc3ccccc3Cl)CC[C@@H]2N1CCc1cccnc1 | active: 100 µM
55 | COc1ccc(-c2noc(Nc3cc(OC)c(OC)c(OC)c3)n2)cc1OC | inconclusive: 15.8 µM [inhibitor, partial curve, poor fit]
56 | COCc1cc(C[C@@H]2C[C@H](NS(=O)(=O)c3ccccc3)C2(C)C)no1 | inconclusive: 89.1 µM [inhibitor, partial curve, poor fit]
57 | Cc1ccc(S(=O)(=O)N[C@H]2CO[C@H]3[C@@H]2OC[C@@H]3n2nnnc2Oc2ccc(-n3ccnc3)cc2)cc1 | inconclusive: 50.1 µM [inhibitor, partial curve, poor fit]
58 | CCc1nc(CN2CCOC(c3ccc4cc(OC)ccc4c3)C2)no1 (stereo unspecified) | inconclusive: 44.7 µM [inhibitor, partial curve, poor fit]
59 | COc1ccc(N2CCN(c3nc(C(=O)NC4CC4)cs3)CC2)cc1 | active: 28.2 µM
60 | O=C(O)[C@H]1C[C@]2(CCCCNC2=O)N(C(=O)c2ccccc2)[C@H]1c1ccccc1 | inconclusive: 50.1 µM [inhibitor, partial curve, poor fit]
61 | COc1ccccc1NC(=O)O[C@H]1COCCN(c2nc3ccccc3s2)C1 | inconclusive: 100 µM [inhibitor, single point]
